Positions count from the first letter of the chain named. No constants are given. Whether binding was seen depends on the method and setting. For part of these data: In cells and extracts the contact can be indirect. Some binding calls cover weakened binding; strength is not graded here. For part of these data: Where a sequence is shown, tags or fusion partners need not be part of it. Each block holds one substance with its values, some of them ahead of it.
Tests used:
[1] = target: T1, His-RILPL1 391-403; assay: pull-down; 10μM His-tagged peptide or His-tagged OCRL PH domain as bait on Ni2+-agarose, 10μM untagged TMEM55B as prey; 20 mM Tris pH 8.0, 300 mM NaCl, 20mM imidazole, 10 mM β-mercaptoethanol; Coomassie; both purified
T1 sequence (peptide): GSGYTEQGQEALQHL

Chains of the proteins cited; added tags and fusions are not shown. Lines headed by an entry give the natural chain unless they say otherwise; changes in a name come on top. A line that says so, or that is headed by a name, gives the form on record, which may keep a tag or linker.
UniProt Q66K14: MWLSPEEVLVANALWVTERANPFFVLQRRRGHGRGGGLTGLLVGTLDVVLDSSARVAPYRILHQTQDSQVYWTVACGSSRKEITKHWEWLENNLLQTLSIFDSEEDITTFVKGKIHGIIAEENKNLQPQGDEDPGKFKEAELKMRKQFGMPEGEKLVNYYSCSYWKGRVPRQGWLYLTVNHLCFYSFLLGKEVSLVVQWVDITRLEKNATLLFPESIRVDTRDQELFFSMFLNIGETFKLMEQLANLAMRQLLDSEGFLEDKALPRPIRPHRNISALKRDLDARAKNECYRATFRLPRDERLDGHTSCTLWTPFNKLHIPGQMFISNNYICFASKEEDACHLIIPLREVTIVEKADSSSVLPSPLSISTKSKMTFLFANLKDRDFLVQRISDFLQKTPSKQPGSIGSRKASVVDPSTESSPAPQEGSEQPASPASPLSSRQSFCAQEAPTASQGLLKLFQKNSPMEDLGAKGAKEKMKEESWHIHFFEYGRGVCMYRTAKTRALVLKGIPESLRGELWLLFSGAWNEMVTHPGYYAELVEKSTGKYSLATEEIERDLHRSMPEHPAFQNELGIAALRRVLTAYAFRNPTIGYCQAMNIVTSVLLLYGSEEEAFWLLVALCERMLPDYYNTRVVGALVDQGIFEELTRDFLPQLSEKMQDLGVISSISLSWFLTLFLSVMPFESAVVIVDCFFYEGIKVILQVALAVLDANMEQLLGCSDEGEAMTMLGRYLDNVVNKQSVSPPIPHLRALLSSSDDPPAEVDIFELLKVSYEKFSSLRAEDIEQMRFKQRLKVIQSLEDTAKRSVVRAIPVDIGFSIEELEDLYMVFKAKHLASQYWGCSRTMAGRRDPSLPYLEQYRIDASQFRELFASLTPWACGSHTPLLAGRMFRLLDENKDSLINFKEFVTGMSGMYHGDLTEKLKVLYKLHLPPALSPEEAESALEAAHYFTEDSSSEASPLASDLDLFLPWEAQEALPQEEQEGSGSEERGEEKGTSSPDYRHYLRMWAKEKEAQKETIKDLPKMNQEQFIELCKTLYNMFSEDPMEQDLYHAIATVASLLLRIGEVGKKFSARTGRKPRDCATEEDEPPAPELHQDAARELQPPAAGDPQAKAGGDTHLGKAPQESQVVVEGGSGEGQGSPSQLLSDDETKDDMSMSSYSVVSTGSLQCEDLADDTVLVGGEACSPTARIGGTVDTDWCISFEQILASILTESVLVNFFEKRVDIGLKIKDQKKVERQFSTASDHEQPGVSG
UniProt Q01968: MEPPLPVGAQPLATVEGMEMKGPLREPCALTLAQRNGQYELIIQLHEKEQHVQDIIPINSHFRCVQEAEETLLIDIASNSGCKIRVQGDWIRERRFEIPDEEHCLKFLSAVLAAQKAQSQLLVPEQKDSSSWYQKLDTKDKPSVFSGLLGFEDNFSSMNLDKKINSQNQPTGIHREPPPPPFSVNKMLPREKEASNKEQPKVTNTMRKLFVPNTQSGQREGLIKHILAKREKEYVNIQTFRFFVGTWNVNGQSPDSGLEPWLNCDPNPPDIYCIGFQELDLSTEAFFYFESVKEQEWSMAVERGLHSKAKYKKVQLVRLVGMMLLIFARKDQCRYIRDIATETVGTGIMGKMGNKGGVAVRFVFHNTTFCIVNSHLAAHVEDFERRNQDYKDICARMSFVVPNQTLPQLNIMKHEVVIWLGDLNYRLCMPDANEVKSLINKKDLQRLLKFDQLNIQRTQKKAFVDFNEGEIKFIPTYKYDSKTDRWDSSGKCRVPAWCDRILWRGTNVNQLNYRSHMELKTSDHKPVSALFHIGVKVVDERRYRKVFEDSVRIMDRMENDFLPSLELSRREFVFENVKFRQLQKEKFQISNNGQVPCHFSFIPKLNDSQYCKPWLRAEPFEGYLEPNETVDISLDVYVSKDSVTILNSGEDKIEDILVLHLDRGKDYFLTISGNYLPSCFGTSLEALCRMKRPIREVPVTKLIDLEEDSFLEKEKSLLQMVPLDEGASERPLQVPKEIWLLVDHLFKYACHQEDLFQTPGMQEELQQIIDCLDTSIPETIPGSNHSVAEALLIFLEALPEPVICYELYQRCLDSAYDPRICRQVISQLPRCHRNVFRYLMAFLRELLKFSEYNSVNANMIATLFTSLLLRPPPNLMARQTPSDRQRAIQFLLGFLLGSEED
TMEM55B (80-166) R151E (Q86T03-2, form named): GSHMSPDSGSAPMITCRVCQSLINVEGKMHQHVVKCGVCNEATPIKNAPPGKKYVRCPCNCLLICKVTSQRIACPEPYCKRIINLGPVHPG
TMEM55B (80-166), untagged, wild type (Q86T03-2, form named): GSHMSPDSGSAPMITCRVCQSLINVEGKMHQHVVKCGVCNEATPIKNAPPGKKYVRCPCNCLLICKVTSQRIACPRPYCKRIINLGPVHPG
Halo-TMEM55B (Q86T03-2, form named): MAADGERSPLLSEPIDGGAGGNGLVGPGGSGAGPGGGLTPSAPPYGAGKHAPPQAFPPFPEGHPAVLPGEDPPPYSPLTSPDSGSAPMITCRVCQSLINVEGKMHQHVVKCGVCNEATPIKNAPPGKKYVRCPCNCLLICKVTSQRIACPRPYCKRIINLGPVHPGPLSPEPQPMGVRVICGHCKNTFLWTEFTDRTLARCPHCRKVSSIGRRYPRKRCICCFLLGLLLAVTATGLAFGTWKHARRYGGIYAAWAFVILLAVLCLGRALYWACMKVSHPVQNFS

[2] = target: T2, His-OCRL 65-75; assay: as above
T2 sequence (peptide): GSVQEAEETLLID

[3] = target: T3, JIP3-GFP (UniProt Q9UPT6); assay: co-IP; GFP immunoprecipitation (GFP-Trap) from transiently transfected HEK293 wild type cells; quantitative immunoblot
T3 sequence: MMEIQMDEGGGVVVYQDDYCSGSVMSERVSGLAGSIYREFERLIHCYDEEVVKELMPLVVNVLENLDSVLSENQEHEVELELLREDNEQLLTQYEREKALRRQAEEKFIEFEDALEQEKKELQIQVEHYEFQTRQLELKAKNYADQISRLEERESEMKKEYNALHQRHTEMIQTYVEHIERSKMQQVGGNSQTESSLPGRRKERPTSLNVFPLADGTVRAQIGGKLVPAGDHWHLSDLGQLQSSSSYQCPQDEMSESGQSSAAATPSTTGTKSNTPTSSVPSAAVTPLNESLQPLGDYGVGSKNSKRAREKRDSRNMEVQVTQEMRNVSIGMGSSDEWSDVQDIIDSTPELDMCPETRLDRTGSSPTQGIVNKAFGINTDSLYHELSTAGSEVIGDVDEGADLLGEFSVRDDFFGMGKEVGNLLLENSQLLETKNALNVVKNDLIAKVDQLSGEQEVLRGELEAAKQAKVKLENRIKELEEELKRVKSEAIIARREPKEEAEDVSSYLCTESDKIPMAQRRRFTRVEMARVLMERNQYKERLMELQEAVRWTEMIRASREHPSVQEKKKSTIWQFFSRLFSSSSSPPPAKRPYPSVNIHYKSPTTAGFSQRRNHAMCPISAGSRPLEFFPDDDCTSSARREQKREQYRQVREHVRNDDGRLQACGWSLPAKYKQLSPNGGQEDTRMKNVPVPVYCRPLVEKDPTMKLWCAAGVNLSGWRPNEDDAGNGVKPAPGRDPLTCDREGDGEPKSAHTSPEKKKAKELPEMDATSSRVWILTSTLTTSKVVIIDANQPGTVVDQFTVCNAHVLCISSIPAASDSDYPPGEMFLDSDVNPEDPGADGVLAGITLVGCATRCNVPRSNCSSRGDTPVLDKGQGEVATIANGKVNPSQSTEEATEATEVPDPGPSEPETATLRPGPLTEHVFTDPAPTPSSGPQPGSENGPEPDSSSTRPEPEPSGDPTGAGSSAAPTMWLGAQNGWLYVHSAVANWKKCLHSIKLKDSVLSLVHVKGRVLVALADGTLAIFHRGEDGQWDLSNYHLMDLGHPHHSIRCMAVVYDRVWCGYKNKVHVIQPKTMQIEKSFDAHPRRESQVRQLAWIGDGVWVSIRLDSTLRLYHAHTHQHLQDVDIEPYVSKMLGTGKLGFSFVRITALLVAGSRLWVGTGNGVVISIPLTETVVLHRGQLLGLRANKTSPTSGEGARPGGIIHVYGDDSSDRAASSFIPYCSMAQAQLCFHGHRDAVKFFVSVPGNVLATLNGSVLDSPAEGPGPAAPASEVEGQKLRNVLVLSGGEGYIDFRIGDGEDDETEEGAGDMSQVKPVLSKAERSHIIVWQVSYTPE

[4] = target: TBC1D9B (GFP-tagged) (UniProt Q66K14); assay: as above
[5] = target: GFP-OCRL (UniProt Q01968); assay: as above
[6] = target: T4, JIP4-GFP (UniProt O60271); assay: as above
T4 sequence: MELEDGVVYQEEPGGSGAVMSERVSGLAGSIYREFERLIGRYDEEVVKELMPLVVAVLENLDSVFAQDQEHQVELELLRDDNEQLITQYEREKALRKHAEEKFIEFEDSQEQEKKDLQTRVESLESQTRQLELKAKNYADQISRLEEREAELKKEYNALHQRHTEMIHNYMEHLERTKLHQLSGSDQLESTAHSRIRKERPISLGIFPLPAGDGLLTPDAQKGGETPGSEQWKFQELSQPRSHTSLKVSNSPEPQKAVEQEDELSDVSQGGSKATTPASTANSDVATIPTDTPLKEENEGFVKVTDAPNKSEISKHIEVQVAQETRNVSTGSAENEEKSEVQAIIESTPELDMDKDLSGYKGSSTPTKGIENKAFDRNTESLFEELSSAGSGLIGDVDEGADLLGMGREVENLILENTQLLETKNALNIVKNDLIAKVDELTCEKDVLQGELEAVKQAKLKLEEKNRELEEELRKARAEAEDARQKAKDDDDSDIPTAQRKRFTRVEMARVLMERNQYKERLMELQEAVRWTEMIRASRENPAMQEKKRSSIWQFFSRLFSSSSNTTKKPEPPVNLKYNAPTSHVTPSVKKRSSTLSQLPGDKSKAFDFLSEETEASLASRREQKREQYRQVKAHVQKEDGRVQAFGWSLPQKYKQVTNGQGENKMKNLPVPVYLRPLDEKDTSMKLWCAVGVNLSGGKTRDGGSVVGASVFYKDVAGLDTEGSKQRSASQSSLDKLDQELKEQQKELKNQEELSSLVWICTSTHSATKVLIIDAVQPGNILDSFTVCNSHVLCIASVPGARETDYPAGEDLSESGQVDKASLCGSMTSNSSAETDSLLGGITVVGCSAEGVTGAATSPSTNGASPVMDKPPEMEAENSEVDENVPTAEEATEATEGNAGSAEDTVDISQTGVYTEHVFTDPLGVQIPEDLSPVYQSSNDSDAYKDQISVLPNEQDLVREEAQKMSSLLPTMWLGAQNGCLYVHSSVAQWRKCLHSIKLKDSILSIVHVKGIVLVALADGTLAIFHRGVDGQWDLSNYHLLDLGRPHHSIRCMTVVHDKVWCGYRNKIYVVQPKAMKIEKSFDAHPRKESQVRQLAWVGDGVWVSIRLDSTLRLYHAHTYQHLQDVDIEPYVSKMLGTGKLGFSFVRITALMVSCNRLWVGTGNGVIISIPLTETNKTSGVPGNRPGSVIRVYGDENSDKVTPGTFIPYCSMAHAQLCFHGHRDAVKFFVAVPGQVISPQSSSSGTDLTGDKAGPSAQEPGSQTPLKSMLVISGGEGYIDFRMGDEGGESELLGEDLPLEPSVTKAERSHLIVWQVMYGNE

[7] = target: T5, RILPL1 E398K GFP (UniProt Q5EBL4); assay: co-IP; GFP-Trap immunoprecipitation of RILPL1-GFP from HEK293 TMEM55B/A double knock-out cells transfected with HA-Rab8A Q67L and FLAG-LRRK2 Y1699C; quantitative immunoblot
T5 sequence: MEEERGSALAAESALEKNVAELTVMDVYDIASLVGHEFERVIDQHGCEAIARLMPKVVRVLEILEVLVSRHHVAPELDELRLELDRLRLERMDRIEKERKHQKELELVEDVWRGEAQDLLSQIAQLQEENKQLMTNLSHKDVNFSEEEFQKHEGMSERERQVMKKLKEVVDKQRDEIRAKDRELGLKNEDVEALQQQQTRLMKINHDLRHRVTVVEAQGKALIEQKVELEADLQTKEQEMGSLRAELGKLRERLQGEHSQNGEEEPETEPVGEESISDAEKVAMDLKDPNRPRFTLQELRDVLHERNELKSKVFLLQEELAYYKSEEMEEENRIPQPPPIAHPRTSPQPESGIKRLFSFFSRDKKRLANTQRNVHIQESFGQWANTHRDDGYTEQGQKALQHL

[8] = target: T6, RILPL1-GFP (UniProt Q5EBL4); assay: as above
T6 sequence: T5 sequence with K398E

[9] = target: T7, RILPL1 G396L GFP (UniProt Q5EBL4); assay: as above
T7 sequence: T5 sequence with G396L, K398E

binding [1]: no binding (tested: 10μM)
Substance: TMEM55B (80-166) R151E (from UniProt Q86T03-2 80-166) (domain or fragment)

binding [2]: no binding (tested: 10μM)
Substance: TMEM55B (80-166), untagged, wild type (from UniProt Q86T03-2 80-166) (domain or fragment)

binding [3]: binds
binding [4]: binds
binding [5]: binds
binding [6]: binds
Substance: TMEM55B (in HEK293 wild type cells, Figure 4) (from UniProt Q86T03-2 1-284)

binding [7]: no binding
binding [8]: binds
binding [9]: no binding
Substance: Halo-TMEM55B (from UniProt Q86T03-2 1-284)

— article doi:10.1101/2025.08.19.670962, “Structural basis for binding of RILPL1 to TMEM55B reveals a lysosomal platform for adaptor assembly through a conserved TBM motif” (bioRxiv, 2025)
